Survival data for 56 molecules are collected here from PubChem BioAssay AID463173 (ICCB-Longwood Screening Facility, Harvard Medical School, 2010).

The campaign covered roughly 52,000 compounds. About 1,700 (3.3%) were called active. Rule as the data show it: active = survival mostly below about 52% (no sharp cut-off); inactive = mostly above about 56%. Some of the results follow.

This assay relates to Wild type. The assay is described as follows: growth inhibition of S. aureus wild type versus tarO mutant, primary screen, teichoic acid synthesis inhibitors, RN4220, OD600 (AID 463173). The settings on record: S. aureus RN4220 wild type/DeltatarO growth, OD600, 18 h, hits give low values, screened at 18.75 µg/mL (by protocol).
Turning to `COc1ccc(C)cc1NS(=O)(=O)c1c(C)nc2sc(C)cn2c1=O`, the survival was inactive: 110%.

For the molecule `CCOc1ccccc1NC(=O)CSc1ccc2nnc(CCNS(=O)(=O)c3ccccc3)n2n1`, the survival was inactive: 91%.

`O=C(O)C1=C(C(=O)Nc2cccc(C(F)(F)F)c2)CCCC1`: the survival was inactive: 115%.

As to `O=C(Nc1ccccn1)c1cccs1`, the survival is inactive: 114%.

`COc1ccccc1NC(=O)C1=C(C)Nc2nc(SCC(=O)c3ccc(C)cc3)nn2C1c1ccccc1C` (stereo unspecified): the survival is inactive: 83%.

Consider `COc1ccc(NC(=O)c2sc3nc(C)c(C(=O)Nc4ccc(C)cc4C)c(-c4ccccc4Cl)c3c2N)cc1`, for which the survival was inactive: 88%.

`Cc1nn(Cc2noc(C(=O)NCc3cccc(F)c3)n2)c(C)c1Br`: the survival is inactive: 74%.

In the case of `CSCCC(NS(=O)(=O)c1ccc2c(c1)oc(=O)n2C)C(=O)NCc1ccc(F)cc1` (stereo unspecified), the survival is inactive: 89%.

For the molecule `COc1ccc(-n2cc(C(=O)N(C)c3cc(C)ccc3OC)c3ccccc3c2=O)cc1`, the survival was inactive: 114%.

As for `Cc1ccc(Cl)cc1N(C)C(=O)c1noc2c1CCCCC2`, the survival was inactive: 65%.

Consider `CN(C)CCNC(=O)CCCn1c(=O)c2cccn2c2ccccc21`, for which the survival was inactive: 91%.

For the molecule `CCOc1ccc(NS(=O)(=O)c2ccc3[nH]cc(C(=O)NCCOC)c(=O)c3c2)cc1`, the survival is inactive: 81%.

Consider `CN(C)CCN(Cc1ccccc1)S(=O)(=O)c1ccc(-c2cc(C(F)(F)F)on2)s1`, for which the survival is inactive: 72%.

`CC1=C(C(=O)Nc2cccnc2)C(c2ccccc2)n2nc(SCc3ccccc3)nc2N1` (stereo unspecified): the survival was inactive: 80%.

`Cc1ccc(Cn2nnc3sc4c(c3c2=O)CCC(C)C4)cc1` (stereo unspecified): the survival is inactive: 60%.

Turning to `CCC(=O)N1CCc2cc(CNS(=O)(=O)c3c(C)cc(C)cc3C)ccc21`, the survival was inactive: 71%.

For the molecule `O=C(Cn1nc(-c2ccccc2)c2cnc3ccccc3c21)Nc1ccccc1`, the survival is inactive: 64%.

Consider `O=C(/C=C/c1ccccc1)C1=C(O)C(=O)N(CCO)C1c1ccc2c(c1)OCO2` (stereo unspecified), for which the survival was inactive: 93%.

As for `Cc1ccc(C)c(NC(=O)CN2C(=O)C3(SCC(=O)N3c3ccc(C)c(C)c3)c3ccccc32)c1` (stereo unspecified), the survival is inactive: 99%.

For `CCCCOc1ccc(C(=O)Nc2ccc(S(=O)(=O)Nc3nc(C)cc(C)n3)cc2)cc1`, the survival was inactive: 77%.

As for `CC1CCc2nc3ncn(Cc4ccc(Cl)cc4)c(=O)c3cc2C1` (stereo unspecified), the survival is inactive: 80%.

For the molecule `Cc1ccc2nc(-c3ccc(Cl)c(NC(=O)c4ccc5c(c4)OCCO5)c3)oc2c1`, the survival was inactive: 85%.

As for `Cc1nnc(NCc2ccc(Cl)cc2)c2c1nnn2Cc1ccc(F)cc1`, the survival is inactive: 85%.

With `NC(=S)N/N=C/c1ccc(Sc2cccc3cccnc23)o1`, the survival was inactive: 115%.

For the molecule `COC(=O)c1ccccc1NC(=O)c1cc(-c2ccc(Cl)cc2)on1`, the survival was inactive: 71%.

Regarding `CCc1ccc2ncc(S(=O)(=O)c3ccc(Cl)cc3)c(N3CCN(CC)CC3)c2c1`, the survival was inactive: 79%.

Regarding `Cc1nc2ccccc2n1CCc1nc2c3ccccc3nc(SCC(=O)Nc3cccc(C(F)(F)F)c3)n2n1`, the survival was inactive: 80%.

Take `Cc1cc(C)cc(-n2c(SCC(=O)N3CCCC3)nc3c([nH]c4ccccc43)c2=O)c1`: the survival is inactive: 69%.

For `Cc1cc(C)nc(NS(=O)(=O)c2ccc(NC(=O)c3ccccc3O)cc2)n1`, the survival was inactive: 127%.

As to `COc1ccc(Br)cc1Cn1nnc(C(=O)Nc2ccc(C)cc2C)c1N`, the survival was inactive: 72%.

Regarding `CCCCOc1ccc(C(=O)N2CC(=O)Nc3ccc(Br)cc3C2c2ccc(F)cc2)cc1` (stereo unspecified), the survival was inactive: 77%.

Regarding `COc1ccc2c(Sc3ccccc3)c(C(=O)NCC(C)c3ccccc3)[nH]c2c1` (stereo unspecified), the survival was inactive: 88%.

`Cc1ccccc1NC(=O)CSc1nc(-c2ccc(F)cc2)nc2c1Cc1ccccc1O2`: the survival was inactive: 77%.

Regarding `CCC(c1nnnn1Cc1ccccc1)N(Cc1cccs1)Cc1cc2ccc(C)cc2[nH]c1=O` (stereo unspecified), the survival is inactive: 115%.

On to `O=C(CCC1N=C2c3ccccc3N=C(SCc3ccccc3Cl)N2C1=O)NCCc1ccccc1` (stereo unspecified), for which the survival is inactive: 119%.

Regarding `Cc1nn(C(=O)c2ccccc2)c2c1C(=O)CC(C)(C)C2`, the survival was inactive: 117%.

For `Cn1c(=O)n(-c2ccc3c(c2)OCO3)c2nc(-c3ccc(Cl)cc3)nc(C(N)=O)c21`, the survival is inactive: 76%.

Regarding `COc1cc(OC)c(NC(=O)C(c2ccccc2)N2Cc3ccccc3C2=O)cc1Cl` (stereo unspecified), the survival was inactive: 69%.

As to `COc1ccc(NC(=O)C2CCN(S(=O)(=O)c3ccc4[nH]c(=O)ccc4c3)CC2)cc1Cl`, the survival was inactive: 130%.

Consider `CCS(=O)(=O)N1CCN(C(=O)c2ccccc2Cl)CC1`, for which the survival was inactive: 98%.

For `CCc1nnc(SCc2cccc(F)c2)c2cc3sc(C)cc3n12`, the survival was inactive: 83%.

In the case of `CCOc1ccc(N2CC(c3nc4ccccc4n3CCCOc3ccccc3OC)CC2=O)cc1` (stereo unspecified), the survival is inactive: 95%.

As for `CCS(=O)(=O)N1CC(=O)N(c2ccc(Cl)cc2C)C(C)(C(=O)NC2CCCCCC2)C1` (stereo unspecified), the survival is inactive: 73%.

On to `COc1ccc(CCNC(=O)C2(c3cccs3)CCOCC2)cc1`, for which the survival is inactive: 127%.

For the molecule `O=C(Nc1nonc1-c1ccc(Cl)cc1)c1ccccc1F`, the survival was inactive: 84%.

With `CCOC(=O)c1scc(-c2ccccc2)c1S(=O)(=O)Nc1ccc(N(C)C)cc1`, the survival was inactive: 68%.

For the molecule `O=C(/C=C/c1ccccc1)NC1CCSC1=O` (stereo unspecified), the survival was inactive: 108%.

With `CC(C)CN(CCCNC(=O)c1cc(-c2ccc(Br)s2)nc2ccccc12)CC(C)C`, the survival is inactive: 97%.

As for `COc1ccc(N2CC(NC(=O)/C=C\c3ccc4c(c3)OCO4)CC2=O)cc1` (stereo unspecified), the survival is inactive: 73%.

Consider `COCCCNC(=O)c1ccc(Cn2c(=O)c3ccccc3n(CC(=O)Nc3c(C)cccc3C)c2=O)cc1`, for which the survival was inactive: 83%.

For the molecule `CCOc1cc(C(=O)Nc2ccc3nc(Nc4cccc(Cl)c4)cc(C)c3c2)cc(OCC)c1OCC`, the survival is inactive: 73%.

Consider `Cc1nn2c(C)c(C(=O)N3CCN(c4ccccc4F)CC3)cnc2c1-c1ccc(F)cc1`, for which the survival was inactive: 78%.

With `Cc1nnc(SCc2cc(=O)n3cccc(C)c3n2)s1`, the survival was inactive: 89%.

For the molecule `CCCC(CCC)C(=O)Nc1cccc(-c2nc3cccnc3s2)c1C`, the survival was inactive: 109%.

In the case of `COc1cccc(-c2nc(CS(=O)(=O)CC(=O)NCCc3ccc(OC)cc3OC)c(C)o2)c1`, the survival is inactive: 83%.

Take `Cc1cccc(CCNC(=O)C2CCC(CNS(=O)(=O)c3ccccc3)CC2)c1` (stereo unspecified): the survival was inactive: 85%.
